Columns and labels:
[1] = biological target: P329G-tag (IL15Rα membrane anchor): anti-P329G VH3VL1 scFv - IL15Ra stalk/TMD/ICD; assay: cell-based or functional assay
Target sequence (chain, as listed by the source P329G P329G P329G P329G): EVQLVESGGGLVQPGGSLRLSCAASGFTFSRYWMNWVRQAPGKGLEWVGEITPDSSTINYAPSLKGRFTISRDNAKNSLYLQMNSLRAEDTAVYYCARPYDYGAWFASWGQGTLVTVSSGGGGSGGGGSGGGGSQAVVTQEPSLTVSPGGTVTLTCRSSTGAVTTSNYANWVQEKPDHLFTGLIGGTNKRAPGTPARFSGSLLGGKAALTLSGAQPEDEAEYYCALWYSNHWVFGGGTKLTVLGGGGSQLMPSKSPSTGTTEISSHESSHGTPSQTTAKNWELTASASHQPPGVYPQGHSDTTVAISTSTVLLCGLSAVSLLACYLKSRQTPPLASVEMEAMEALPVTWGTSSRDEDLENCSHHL

[2] = biological target: P329G-CAR (CD28): anti-P329G VH3VL1 scFv - CD8a stalk - TMD - CD28 ICD - CD3zeta ICD; assay: cell-based or functional assay
Target sequence (chain, as listed by the source P329G P329G P329G P329G): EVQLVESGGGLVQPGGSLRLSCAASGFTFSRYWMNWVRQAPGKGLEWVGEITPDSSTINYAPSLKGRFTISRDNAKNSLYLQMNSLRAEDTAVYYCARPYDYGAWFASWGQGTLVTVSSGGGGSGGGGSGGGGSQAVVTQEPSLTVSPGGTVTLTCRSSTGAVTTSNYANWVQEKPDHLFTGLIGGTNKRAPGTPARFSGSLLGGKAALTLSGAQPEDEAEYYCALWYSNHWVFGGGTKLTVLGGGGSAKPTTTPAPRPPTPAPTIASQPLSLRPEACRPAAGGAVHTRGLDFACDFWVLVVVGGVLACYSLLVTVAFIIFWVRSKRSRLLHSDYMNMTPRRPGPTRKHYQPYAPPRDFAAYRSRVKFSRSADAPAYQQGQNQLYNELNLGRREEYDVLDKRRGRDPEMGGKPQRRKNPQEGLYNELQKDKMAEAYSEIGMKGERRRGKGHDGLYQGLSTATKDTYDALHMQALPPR

Binder | pSTAT5 cis-targeting effect (GFP- vs GFP+ cells) [1] [fold] | pSTAT5 cis-targeting window (GFP+ vs GFP- cells), PD-1 low T cells [1] [fold] | pSTAT5 window (GFP+ vs GFP- cells), not reactivated PD-1 low T cells [1] [fold] | pSTAT5 cis-targeting window (GFP+ vs GFP- cells) [2] [fold]
PD1-IL2v (PD-1-targeted IgG-IL-2 qm fusion protein, Fc P329G LALA) (other) heavy 1: EVQLLESGGGLVQPGGSLRLSCAASGFSFSSYTMSWVRQAPGKGLEWVATISGGGRDIYYPDSVKGRFTISRDNSKNTLYLQMNSLRAEDTAVYYCVLLTGRVYFALDSWGQGTLVTVSSASTKGPSVFPLAPSSKSTSGGTAALGCLVKDYFPEPVTVSWNSGALTSGVHTFPAVLQSSGLYSLSSVVTVPSSSLGTQTYICNVNHKPSNTKVDKKV[human IgG1 Fc with changes not written out]GGGGSGGGGSGGGGSAPASSSTKKTQLQLEHLLLDLQMILNGINNYKNPKLTRMLTAKFAMPKKATELKHLQCLEEELKPLEEVLNGAQSKNFHLRPRDLISNINVIVLELKGSETTFMCEYADETATIVEFLNRWITFAQSIISTLT heavy 2: EVQLLESGGGLVQPGGSLRLSCAASGFSFSSYTMSWVRQAPGKGLEWVATISGGGRDIYYPDSVKGRFTISRDNSKNTLYLQMNSLRAEDTAVYYCVLLTGRVYFALDSWGQGTLVTVSSASTKGPSVFPLAPSSKSTSGGTAALGCLVKDYFPEPVTVSWNSGALTSGVHTFPAVLQSSGLYSLSSVVTVPSSSLGTQTYICNVNHKPSNTKVDKKVEPKSCDKTHTCPPCPAPEAAGGPSVFLFPPKPKDTLMISRTPEVTCVVVDVSHEDPEVKFNWYVDGVEVHNAKTKPREEQYNSTYRVVSVLTVLHQDWLNGKEYKCKVSNKALGAPIEKTISKAKGQPREPQVCTLPPSRDELTKNQVSLSCAVKGFYPSDIAVEWESNGQPENNYKTTPPVLDSDGSFFLVSKLTVDKSRWQQGNVFSCSVMHEALHNHYTQKSLSLSP light: DIVMTQSPDSLAVSLGERATINCKASESVDTSDNSFIHWYQQKPGQSPKLLIYRSSTLESGVPDRFSGSGSGTDFTLTISSLQAEDVAVYYCQQNYDVPWTFGQGTKVEIKRTVAAPSVFIFPPSDEQLKSGTASVVCLLNNFYPREAKVQWKVDNALQSGNSQESVTEQDSKDSTYSLSSTLTLSKADYEKHKVYACEVTHQGLSSPVTKSFNRGEC | 75 | ~100 | ~100 | ~100
PD1-IL2vQ126T (other) heavy 1: EVQLLESGGGLVQPGGSLRLSCAASGFSFSSYTMSWVRQAPGKGLEWVATISGGGRDIYYPDSVKGRFTISRDNSKNTLYLQMNSLRAEDTAVYYCVLLTGRVYFALDSWGQGTLVTVSSASTKGPSVFPLAPSSKSTSGGTAALGCLVKDYFPEPVTVSWNSGALTSGVHTFPAVLQSSGLYSLSSVVTVPSSSLGTQTYICNVNHKPSNTKVDKKV[human IgG1 Fc with changes not written out]GGGGSGGGGSGGGGSAPASSSTKKTQLQLEHLLLDLQMILNGINNYKNPKLTRMLTAKFAMPKKATELKHLQCLEEELKPLEEVLNGAQSKNFHLRPRDLISNINVIVLELKGSETTFMCEYADETATIVEFLNRWITFATSIISTLT heavy 2: EVQLLESGGGLVQPGGSLRLSCAASGFSFSSYTMSWVRQAPGKGLEWVATISGGGRDIYYPDSVKGRFTISRDNSKNTLYLQMNSLRAEDTAVYYCVLLTGRVYFALDSWGQGTLVTVSSASTKGPSVFPLAPSSKSTSGGTAALGCLVKDYFPEPVTVSWNSGALTSGVHTFPAVLQSSGLYSLSSVVTVPSSSLGTQTYICNVNHKPSNTKVDKKVEPKSCDKTHTCPPCPAPEAAGGPSVFLFPPKPKDTLMISRTPEVTCVVVDVSHEDPEVKFNWYVDGVEVHNAKTKPREEQYNSTYRVVSVLTVLHQDWLNGKEYKCKVSNKALGAPIEKTISKAKGQPREPQVCTLPPSRDELTKNQVSLSCAVKGFYPSDIAVEWESNGQPENNYKTTPPVLDSDGSFFLVSKLTVDKSRWQQGNVFSCSVMHEALHNHYTQKSLSLSP light: DIVMTQSPDSLAVSLGERATINCKASESVDTSDNSFIHWYQQKPGQSPKLLIYRSSTLESGVPDRFSGSGSGTDFTLTISSLQAEDVAVYYCQQNYDVPWTFGQGTKVEIKRTVAAPSVFIFPPSDEQLKSGTASVVCLLNNFYPREAKVQWKVDNALQSGNSQESVTEQDSKDSTYSLSSTLTLSKADYEKHKVYACEVTHQGLSSPVTKSFNRGEC |  |  |  | ~800
